According to the supplement of paper PMC8728848:
The list shows a part of the results.

What was measured:
Test in all cases: glycan array binding signal (z-score within array); higher = stronger binding
Settings in all cases: glycan notation: IUPAC condensed, linker removed
Neu5Ac(a2-3)GalNAc = biological target: Neu5Ac(a2-3)GalNAc
How it was run: (§1)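 Glycan array data were curated from 3228 arrays in the Consortium for Functional Glycomics database and kept only where the protein sequence was available. Glycan names were converted to IUPAC-condensed notation, and columns mapping to the same glycan were averaged. The binding signal is a within-array Z-score, averaged across arrays of the same protein sequence at different concentrations or buffers and across linkers. Negative Z-scores can be read as non-binding.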

[1] = biological target: Neu5Ac(a2-3)GalNAc(b1-4)GlcNAc
How it was run: as §1

[2] = biological target: Neu5Ac(a2-3)[GalNAc(b1-4)]Gal(b1-4)Glc
How it was run: as §1

[3] = biological target: Neu5Ac(a2-3)[GalNAc(b1-4)]Gal(b1-4)GlcNAc
How it was run: as §1

[4] = biological target: Neu5Ac(a2-3)[GalNAc(b1-4)]Gal(b1-4)GlcNAc(b1-3)GalNAc
How it was run: as §1

[5] = biological target: Neu5Ac(a2-3)[Neu5Ac(a2-6)]GalNAc
How it was run: as §1

Neu5Ac(a2-6)Gal = biological target: Neu5Ac(a2-6)Gal
How it was run: as §1

[6] = biological target: Neu5Ac(a2-6)Gal(b1-3)GlcNAc(b1-3)[Gal(b1-4)GlcNAc(b1-6)]Gal(b1-4)Glc
How it was run: as §1

Neu5Ac(a2-6)Gal(b1-4)Glc = biological target: Neu5Ac(a2-6)Gal(b1-4)Glc
How it was run: as §1

[7] = biological target: Neu5Ac(a2-6)Gal(b1-4)GlcNAc
How it was run: as §1

[8] = biological target: Neu5Ac(a2-6)Gal(b1-4)GlcNAc(b1-2)Man
How it was run: as §1

[9] = biological target: Neu5Ac(a2-6)Gal(b1-4)GlcNAc(b1-2)Man(a1-3)Man(b1-4)GlcNAc(b1-4)GlcNAc
How it was run: as §1

[10] = biological target: Neu5Ac(a2-6)Gal(b1-4)GlcNAc(b1-2)Man(a1-3)[Gal(b1-4)GlcNAc(b1-2)Man(a1-6)]Man(b1-4)GlcNAc(b1-4)GlcNAc
How it was run: as §1

[11] = biological target: Neu5Ac(a2-6)Gal(b1-4)GlcNAc(b1-2)Man(a1-3)[GlcNAc(b1-2)Man(a1-6)]Man(b1-4)GlcNAc(b1-4)GlcNAc
How it was run: as §1

[12] = biological target: Neu5Ac(a2-6)Gal(b1-4)GlcNAc(b1-2)Man(a1-3)[GlcNAc(b1-4)][Neu5Ac(a2-6)Gal(b1-4)GlcNAc(b1-2)Man(a1-6)]Man(b1-4)GlcNAc(b1-4)GlcNAc
How it was run: as §1

[13] = biological target: Neu5Ac(a2-6)Gal(b1-4)GlcNAc(b1-2)Man(a1-3)[Man(a1-6)]Man(b1-4)GlcNAc(b1-4)GlcNAc
How it was run: as §1

[14] = biological target: Neu5Ac(a2-6)Gal(b1-4)GlcNAc(b1-2)Man(a1-3)[Neu5Ac(a2-3)Gal(b1-4)GlcNAc(b1-2)Man(a1-6)]Man(b1-4)GlcNAc(b1-4)GlcNAc
How it was run: as §1

[15] = biological target: Neu5Ac(a2-6)Gal(b1-4)GlcNAc(b1-2)Man(a1-3)[Neu5Ac(a2-6)Gal(b1-4)GlcNAc(b1-2)Man(a1-6)]Man(b1-4)GlcNAc(b1-4)GlcNAc
How it was run: as §1

[16] = biological target: Neu5Ac(a2-6)Gal(b1-4)GlcNAc(b1-2)Man(a1-3)[Neu5Ac(a2-6)Gal(b1-4)GlcNAc(b1-2)Man(a1-6)]Man(b1-4)GlcNAc(b1-4)[Fuc(a1-6)]GlcNAc
How it was run: as §1

[17] = biological target: Neu5Ac(a2-6)Gal(b1-4)GlcNAc(b1-2)Man(a1-6)Man(b1-4)GlcNAc(b1-4)GlcNAc
How it was run: as §1

[18] = biological target: Neu5Ac(a2-6)Gal(b1-4)GlcNAc(b1-2)Man(a1-6)[Gal(b1-4)GlcNAc(b1-2)Man(a1-3)]Man(b1-4)GlcNAc(b1-4)GlcNAc
How it was run: as §1

[19] = biological target: Neu5Ac(a2-6)Gal(b1-4)GlcNAc(b1-2)Man(a1-6)[GlcNAc(b1-2)Man(a1-3)]Man(b1-4)GlcNAc(b1-4)GlcNAc
How it was run: as §1

[20] = biological target: Neu5Ac(a2-6)Gal(b1-4)GlcNAc(b1-2)Man(a1-6)[Man(a1-3)]Man(b1-4)GlcNAc(b1-4)GlcNAc
How it was run: as §1

[21] = biological target: Neu5Ac(a2-6)Gal(b1-4)GlcNAc(b1-2)[Neu5Ac(a2-6)Gal(b1-4)GlcNAc(b1-4)]Man(a1-3)[GlcNAc(b1-4)][Neu5Ac(a2-6)Gal(b1-4)GlcNAc(b1-2)[Neu5Ac(a2-6)Gal(b1-4)GlcNAc(b1-6)]Man(a1-6)]Man(b1-4)GlcNAc(b1-4)GlcNAc
How it was run: as §1

[22] = biological target: Neu5Ac(a2-6)Gal(b1-4)GlcNAc(b1-2)[Neu5Ac(a2-6)Gal(b1-4)GlcNAc(b1-4)]Man(a1-3)[GlcNAc(b1-4)][Neu5Ac(a2-6)Gal(b1-4)GlcNAc(b1-4)Man(a1-6)]Man(b1-4)GlcNAc(b1-4)GlcNAc
How it was run: as §1

[23] = biological target: Neu5Ac(a2-6)Gal(b1-4)GlcNAc(b1-2)[Neu5Ac(a2-6)Gal(b1-4)GlcNAc(b1-6)]Man(a1-6)[Neu5Ac(a2-6)Gal(b1-4)GlcNAc(b1-2)Man(a1-3)][GlcNAc(b1-4)]Man(b1-4)GlcNAc(b1-4)GlcNAc
How it was run: as §1

[24] = biological target: Neu5Ac(a2-6)Gal(b1-4)GlcNAc(b1-3)Gal(b1-3)GlcNAc
How it was run: as §1

[25] = biological target: Neu5Ac(a2-6)Gal(b1-4)GlcNAc(b1-3)Gal(b1-4)GlcNAc
How it was run: as §1

[26] = biological target: Neu5Ac(a2-6)Gal(b1-4)GlcNAc(b1-3)Gal(b1-4)GlcNAc(b1-2)Man(a1-3)[Neu5Ac(a2-6)Gal(b1-4)GlcNAc(b1-3)Gal(b1-4)GlcNAc(b1-2)Man(a1-6)]GalNAc
How it was run: as §1

[27] = biological target: Neu5Ac(a2-6)Gal(b1-4)GlcNAc(b1-3)Gal(b1-4)GlcNAc(b1-3)Gal(b1-4)GlcNAc
How it was run: as §1

[28] = biological target: Neu5Ac(a2-6)Gal(b1-4)GlcNAc(b1-3)Gal(b1-4)GlcNAc(b1-3)Gal(b1-4)GlcNAc(b1-2)Man(a1-3)[Neu5Ac(a2-6)Gal(b1-4)GlcNAc(b1-3)Gal(b1-4)GlcNAc(b1-3)Gal(b1-4)GlcNAc(b1-2)Man(a1-6)]GalNAc
How it was run: as §1

[29] = biological target: Neu5Ac(a2-6)Gal(b1-4)GlcNAc(b1-3)Gal(b1-4)GlcNAc(b1-3)GalNAc
How it was run: as §1

[30] = biological target: Neu5Ac(a2-6)Gal(b1-4)GlcNAc(b1-3)Gal(b1-4)GlcNAc(b1-3)[Neu5Ac(a2-6)Gal(b1-4)GlcNAc(b1-3)Gal(b1-4)GlcNAc(b1-6)]GalNAc
How it was run: as §1

[31] = biological target: Neu5Ac(a2-6)Gal(b1-4)GlcNAc(b1-3)Gal(b1-4)GlcNAc(b1-6)[Gal(b1-3)]GalNAc
How it was run: as §1

[32] = biological target: Neu5Ac(a2-6)Gal(b1-4)GlcNAc(b1-3)Gal(b1-4)[Fuc(a1-3)]GlcNAc(b1-3)Gal(b1-4)[Fuc(a1-3)]GlcNAc
How it was run: as §1

[33] = biological target: Neu5Ac(a2-6)Gal(b1-4)GlcNAc(b1-3)GalNAc
How it was run: as §1

[34] = biological target: Neu5Ac(a2-6)Gal(b1-4)GlcNAc(b1-3)[Neu5Ac(a2-6)Gal(b1-4)GlcNAc(b1-6)]GalNAc
How it was run: as §1

[35] = biological target: Neu5Ac(a2-6)Gal(b1-4)GlcNAc(b1-6)GalNAc
How it was run: as §1

[36] = biological target: Neu5Ac(a2-6)Gal(b1-4)GlcNAc(b1-6)[Gal(b1-3)GlcNAc(b1-3)]Gal(b1-4)Glc
How it was run: as §1

[37] = biological target: Neu5Ac(a2-6)Gal(b1-4)GlcNAc(b1-6)[Gal(b1-3)]GalNAc
How it was run: as §1

[38] = biological target: Neu5Ac(a2-6)Gal(b1-4)GlcNAc6S
How it was run: as §1

Neu5Ac(a2-6)GalNAc = biological target: Neu5Ac(a2-6)GalNAc
How it was run: as §1

[39] = biological target: Neu5Ac(a2-6)GalNAc(b1-4)GlcNAc
How it was run: as §1

[40] = biological target: Neu5Ac(a2-6)GalNAc(b1-4)GlcNAc6S
How it was run: as §1

[41] = biological target: Neu5Ac(a2-6)GlcNAc(b1-4)GlcNAc
How it was run: as §1

B1: TIM1 (protein)
chain: ADGIQSVKVGGEAGPSVTLPCHYSGAVTSMCWNRGSCSLFTCQNGIVWTNGTHVTYRKDTRYKLLGDLSRRDVSLTIENTAVSDSGVYCCRVEHRGWFNDMKITVSLEIVPPHHHHHH
glycan array binding signal (z-score) (Neu5Ac(a2-3)GalNAc): -0.23 | glycan array binding signal (z-score) [1]: -0.235 | glycan array binding signal (z-score) [2]: -0.199 | glycan array binding signal (z-score) [3]: -0.182 | glycan array binding signal (z-score) [4]: 0.098 | glycan array binding signal (z-score) [5]: -0.255 | glycan array binding signal (z-score) (Neu5Ac(a2-6)Gal): -0.174 | glycan array binding signal (z-score) [6]: -0.254 | glycan array binding signal (z-score) (Neu5Ac(a2-6)Gal(b1-4)Glc): -0.204 | glycan array binding signal (z-score) [7]: -0.238 | glycan array binding signal (z-score) [8]: -0.271 | glycan array binding signal (z-score) [9]: -0.192 | glycan array binding signal (z-score) [10]: -0.085 | glycan array binding signal (z-score) [11]: -0.243 | glycan array binding signal (z-score) [12]: -0.194 | glycan array binding signal (z-score) [13]: 0.175 | glycan array binding signal (z-score) [14]: -0.264 | glycan array binding signal (z-score) [15]: -0.229 | glycan array binding signal (z-score) [16]: -0.14 | glycan array binding signal (z-score) [17]: -0.213 | glycan array binding signal (z-score) [18]: -0.24 | glycan array binding signal (z-score) [19]: -0.239 | glycan array binding signal (z-score) [20]: -0.179 | glycan array binding signal (z-score) [21]: -0.245 | glycan array binding signal (z-score) [22]: -0.238 | glycan array binding signal (z-score) [23]: -0.275 | glycan array binding signal (z-score) [24]: -0.224 | glycan array binding signal (z-score) [25]: -0.184 | glycan array binding signal (z-score) [26]: 1.3 | glycan array binding signal (z-score) [27]: -0.266 | glycan array binding signal (z-score) [28]: 5.74 | glycan array binding signal (z-score) [29]: -0.194 | glycan array binding signal (z-score) [30]: 0.734 | glycan array binding signal (z-score) [31]: 0.088 | glycan array binding signal (z-score) [32]: -0.236 | glycan array binding signal (z-score) [33]: -0.109 | glycan array binding signal (z-score) [34]: -0.168 | glycan array binding signal (z-score) [35]: -0.152 | glycan array binding signal (z-score) [36]: -0.137 | glycan array binding signal (z-score) [37]: -0.075 | glycan array binding signal (z-score) [38]: -0.209 | glycan array binding signal (z-score) (Neu5Ac(a2-6)GalNAc): -0.199 | glycan array binding signal (z-score) [39]: -0.239 | glycan array binding signal (z-score) [40]: -0.183 | glycan array binding signal (z-score) [41]: -0.28
